The record followed here is PubChem BioAssay AID488969 (Vanderbilt High Throughput Screening Facility, 2010).

In all, about 110,000 compounds were measured (“z-score”: median about -0.1, highest 2% from about 2 on). This is one part of the list.

The experiment addresses Metabotropic glutamate receptor 8 (Rattus norvegicus) (UniProt P70579). As to the kind of experiment: rat mGluR8 modulators via GIRK flux, primary screen, cell-based, thallium flux, HTS (AID 488969). As to conditions: HEK293 rat mGluR8, GIRK (G protein-gated inwardly rectifying potassium channel) thallium flux, FluoZin2; at 10 µM; stronger effect = higher value; submaximal glutamate (EC20) added with thallium.
Sequence of UniProt P70579 (P70579 whole entry, looked up): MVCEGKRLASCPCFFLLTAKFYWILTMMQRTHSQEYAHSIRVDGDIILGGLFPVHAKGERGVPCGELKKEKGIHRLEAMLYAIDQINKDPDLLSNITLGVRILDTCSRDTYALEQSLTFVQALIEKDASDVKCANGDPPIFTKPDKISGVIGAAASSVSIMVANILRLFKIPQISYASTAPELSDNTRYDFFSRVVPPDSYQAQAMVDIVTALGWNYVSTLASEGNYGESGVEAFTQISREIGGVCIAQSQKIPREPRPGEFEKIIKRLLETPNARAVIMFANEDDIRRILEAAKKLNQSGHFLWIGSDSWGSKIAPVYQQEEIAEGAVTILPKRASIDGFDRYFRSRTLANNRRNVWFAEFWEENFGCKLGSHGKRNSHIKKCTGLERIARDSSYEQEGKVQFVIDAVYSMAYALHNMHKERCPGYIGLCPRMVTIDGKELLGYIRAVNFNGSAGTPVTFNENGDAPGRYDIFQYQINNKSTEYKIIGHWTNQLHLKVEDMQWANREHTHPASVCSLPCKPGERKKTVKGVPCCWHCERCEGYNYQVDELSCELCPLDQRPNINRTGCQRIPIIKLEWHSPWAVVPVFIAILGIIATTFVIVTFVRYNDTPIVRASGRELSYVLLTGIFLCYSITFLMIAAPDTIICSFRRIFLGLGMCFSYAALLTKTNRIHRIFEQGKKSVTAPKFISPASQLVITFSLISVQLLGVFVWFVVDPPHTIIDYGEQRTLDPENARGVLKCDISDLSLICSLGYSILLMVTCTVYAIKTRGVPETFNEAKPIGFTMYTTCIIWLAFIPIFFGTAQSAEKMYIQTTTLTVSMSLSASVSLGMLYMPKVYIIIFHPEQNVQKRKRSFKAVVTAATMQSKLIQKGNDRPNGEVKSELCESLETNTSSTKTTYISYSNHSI
`O=C(/C=C/c1ccc(Cl)c([N+](=O)[O-])c1)NCc1cccnc1` had a z-score of 0.179.

The compound `CCOc1cc(C)c(Cl)cc1S(=O)(=O)N(C)C` returned a z-score of 0.235.

Compound `COc1ccc(OC)c(S(=O)(=O)N2CCN(c3c(C)cccc3C)CC2)c1` yielded a z-score of -0.517.

For the compound `CCCCN(CC)C(=O)Cc1ccccc1OC`, the z-score is -0.0261.

Compound `O=C1CCc2cc(S(=O)(=O)N3CCC(C(=O)NC4CCCC4)CC3)ccc2N1` registered a z-score of 0.211.

The compound `COc1cccc(OC)c1OCCN(C)C` had a z-score of -0.123.

The compound `CCCC(c1nnnn1C(C)(C)CC)N1CCN(C2CCCC2)CC1` (stereo unspecified) had a z-score of -0.327.

As to `CC(C(=O)NCc1cccnc1)N1C(=O)c2ccccc2C1=O` (stereo unspecified), the z-score is -0.0295.

`Cc1ccc2nc(/C(C#N)=C\c3ccc(Oc4ccc(C(F)(F)F)cc4[N+](=O)[O-])cc3)[nH]c2c1`: the z-score was -0.189.

As to `CCOC(=O)C1CCCN(C(=O)c2cn(CC(C)C)c(=O)c3cc(OC)c(OC)cc23)C1` (stereo unspecified), the z-score is -0.759.

`CCCCNC(=O)CCNC(=O)c1ccc(C(C)(C)C)cc1`: the z-score is -0.345.

Compound `CCN(CC)S(=O)(=O)c1ccc(N2CCOCC2)c(NC(=O)Cc2ccccc2)c1` came in with a z-score of -0.339.

Take `CSc1ccc(S(=O)(=O)Nc2ccc3c4c(cccc24)CC3)cc1`: the z-score was -0.0865.

With `Cc1ccc2c(c1)NC(=O)C(CC(=O)NCCCN1CCCC1)O2` (stereo unspecified), the z-score came to 0.515.

Turning to `COc1ccc(/C=C/c2nc3cc(-c4ccccc4)ccc3o2)cc1O`, the z-score was -0.0979.

In the case of `COc1ccc(NC(=O)CSc2nnc(C3CC3)n2N)cc1`, the z-score is 0.406.

As for `COc1ccc(-c2nc(N)ncc2Oc2ccccc2Br)c(O)c1`, the z-score was -0.207.

As to `CCn1c(C)cc(/C=C2/SC(=S)NC2=O)c1C`, the z-score came out at 0.271.

Regarding `COc1ccc(C2C3=C(N=C4SCC(=O)N42)c2ccccc2CC3)cc1OC` (stereo unspecified), the z-score is -0.0972.

In turn, `Cc1ccc(-c2ccc(CCC(=O)O)n2CC(=O)O)cc1` showed a z-score of -0.23.

Compound `Nc1ccc(C2(c3ccc(N)cc3)C(=O)Nc3ccccc32)cc1` showed a z-score of -0.763.

For the compound `COc1ccc(-c2csc(N(CC3CCCO3)C(=O)c3ccc(C)cc3)n2)cc1` (stereo unspecified), the z-score came out at 0.0835.

As for `Cc1[nH]n(-c2ccccc2)c(=O)c1C(C[N+](=O)[O-])c1ccccc1Cl` (stereo unspecified), the z-score is -0.62.

The compound `Cc1nn(C)c(-c2n[nH]c(=S)n2Cc2ccco2)c1Cl` displayed a z-score of 0.099.

Take `COCC(=O)Nc1nnc(COc2ccccc2)s1`: the z-score worked out at 1.53.

As to `Cc1cc(C)n2nc(SCCC(=O)NCCc3ccccc3)nc2n1`, the z-score was -0.398.

In turn, `Cc1nc(C(=O)Nc2cccc(Cl)c2)nn1-c1cc(OC(C)C)c(Cl)cc1Cl` showed a z-score of -0.414.

Consider `COc1ccc(C2=NOC(C(=O)N3CCN(c4ccccc4OC)CC3)C2)cc1` (stereo unspecified), for which the z-score is -0.609.

`CC1(C)CC(=O)c2cnc(NC(=O)CSc3nc4ccccc4o3)nc2C1` showed a z-score of -0.17.

Compound `CC(NC(=O)Nc1ccccc1C(F)(F)F)C1CCCO1` (stereo unspecified) gave a z-score of 0.263.

As to `Cc1cc(=O)n2nc(N3CCCC(C(=O)N4CCc5ccccc54)C3)sc2n1` (stereo unspecified), the z-score is 0.0947.

In turn, `COc1ccccc1NC(=O)C(C/C=C(/C)Cl)C(C)=O` (stereo unspecified) returned a z-score of 0.122.

As for `CC(=O)Nc1ccc(NC(=O)CSc2ccc(C(F)(F)F)cc2[N+](=O)[O-])cc1`, the z-score is -0.252.

Compound `O=C(Nc1ccc(Cl)c(C(F)(F)F)c1)N1CCCC(O)C1` (stereo unspecified) registered a z-score of -0.895.

In turn, `Cc1ccc(-c2csc3n[nH]c(=S)n23)cc1` came in with a z-score of -0.454.

As for `CCCn1c(SCC(=O)N2c3ccccc3Sc3ccccc32)nc2c1c(=O)n(C)c(=O)n2C`, the z-score was determined as 0.402.

Compound `O=C1c2ccccc2S(=O)(=O)N1CCOc1ccc(F)cc1` registered a z-score of 0.0834.

Consider `Cc1ccc(C)c(C(=O)COC(=O)CCCC(=O)Nc2cc(C(F)(F)F)ccc2Cl)c1`, for which the z-score was -0.0981.

Turning to `CN(C)c1ccc(/C=N/n2c(COc3ccccc3)n[nH]c2=S)cc1`, the z-score came to 0.208.

Take `N#Cc1c(Cl)nc(N/N=C/c2ccccc2)c(Cl)c1Cl`: the z-score stood at 0.00479.

As to `Cc1cc(-c2ccccc2)nc(N(C)NC(=O)c2c(F)cccc2F)c1S(C)(=O)=O`, the z-score is -0.207.

`O=C(Cn1cnc2c(cnn2-c2ccc(F)cc2)c1=O)N1CCCc2ccccc21` returned a z-score of 0.383.

Take `CCn1c(CC(=O)Nc2ccc(C)cc2)nnc1SCC(=O)N1CCN(c2ccccc2)CC1`: the z-score was -0.245.

`Nc1nc(N)nc(-c2ccccc2O)n1`: the z-score was -0.0307.

`Cc1ccnc(NC(=O)C2(c3cccs3)CCOCC2)c1` returned a z-score of -0.137.

Compound `Cc1ccc2nc(SCC(=O)Nc3cccc(S(=O)(=O)N(C)C)c3)[nH]c2c1` came in with a z-score of -0.805.

As to `O=C(Oc1csc(=S)n1C(=O)c1ccccc1)c1ccccc1`, the z-score is 0.0692.

`CNC(=O)c1nc[nH]c1C(=O)NC` showed a z-score of 0.214.

With `Cc1ccc(Nc2nc(-c3ccc(S(=O)(=O)N4CCOCC4)cc3)cs2)cc1`, the z-score is -0.143.

Regarding `COc1ccc(C2=Nn3c(nnc3-c3cccnc3)SC2)cc1`, the z-score was -0.699.

The compound `N#Cc1cc(-c2ccccc2)nnc1Sc1ccc(F)cc1` had a z-score of 0.425.

`CN(C1CCCCC1)S(=O)(=O)c1ccc(NC(=O)C2CCCCC2C(=O)O)cc1` (stereo unspecified) returned a z-score of -0.0592.

In turn, `CCn1c(C)nc2cc(C(=O)NNC(=S)Nc3ccccc3Cl)ccc21` came in with a z-score of 0.0157.

The compound `COc1ccccc1/C=C/C(=O)Nc1ccc2c(c1)CCC2` returned a z-score of -0.4.

`C/C(=N\Nc1ccc([N+](=O)[O-])cc1[N+](=O)[O-])C(C)(C)C(C(=O)O)C(=O)O` returned a z-score of -0.127.

The compound `CCOC(=O)c1nnc2ccnn2c1N` returned a z-score of -0.132.

Consider `O=C(Nc1ccccc1N1CCN(c2ccc(F)cc2)CC1)C1CCCCC1`, for which the z-score was determined as 0.216.

Turning to `Cc1ccc(-n2c(Cl)c(Cl)[nH]c(=O)c2=O)cc1`, the z-score was -0.709.

The compound `CN=C1NN=C(c2cc(C)n(-c3c(C)n(C)n(-c4ccccc4)c3=O)c2C)CS1` registered a z-score of -0.133.

Compound `Cc1nc(Oc2ccccc2)c2ccccc2n1` displayed a z-score of -0.0898.

`O=C(CN1CCOCC1)Nc1ccc(Oc2ccccc2)cc1` had a z-score of 1.91.

Compound `CCC(=O)Nc1ccc(N2CCC(C)CC2)cc1` had a z-score of 0.203.

In turn, `Cc1ccc(NC(=O)Nc2sc(=S)n(C)c2C)cc1` returned a z-score of 0.6.

Regarding `CS(=O)(=O)N(CC(=O)Nc1cccnc1)c1ccc2c(c1)OCO2`, the z-score turned out to be 0.76.

In turn, `COc1ccc(/C=C(/C#N)C(=O)Nc2cccc(C)c2C)cc1C(=O)O` showed a z-score of -0.158.

Take `O=C1C(=O)N(CCN2CCOCC2)C(c2ccccn2)/C1=C(/O)c1ccccc1` (stereo unspecified): the z-score is 0.139.

`N/C(=N\OC(=O)Cc1ccc(-c2ccccc2)cc1)c1ccccn1`: the z-score came out at 0.151.

Take `COc1ccc(C2C(C(=O)NCc3cccnc3)c3ccccc3C(=O)N2C)cc1OC` (stereo unspecified): the z-score is -0.235.

`CCOc1ccc2nc(NC(=O)CSc3nc(SC)ns3)sc2c1` registered a z-score of -0.147.

`COC(=O)c1nn(-c2ccc(OC)cc2)c(=O)cc1Oc1cccc(Cl)c1` had a z-score of -0.228.

In turn, `CCSc1nc(O)c(Cc2ccccc2)c(=O)[nH]1` displayed a z-score of -0.0379.
